According to the supplement of paper PMC4604168 (melanoma cell lines):
The other results are listed elsewhere or left out. Most values come without repeats; read them as rough.

The compounds below were run on UACC62 (assay: cell count relative to DMSO control; melanoma cells; higher = more viable cells). Conditions: library dose: low library concentration; 72 h.
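Note: cell number obtained by counting DAPI-stained nuclei in high-throughput microscope images with image analysis software, screen run in 1,536-well plates.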

Row | Compound | cell count
1 | CC(C)C[C@H](NC(=O)[C@H](Cc1ccccc1)NC(=O)c1cnccn1)B(O)O [Bortezomib] + COc1cc(Nc2ncc(F)c(Nc3ccc4c(n3)NC(=O)C(C)(C)O4)n2)cc(OC)c1OC [Tamatinib] (first compound 0.001 µM, partner dose 0.4 µM) | 90%
2 | Cc1cc(Nc2cc(N3CCN(C)CC3)nc(/C=C/c3ccccc3)n2)n[nH]1 + Cc1cc(N2CCOCC2)cc2[nH]c(-c3c(NC[C@@H](O)c4cccc(Cl)c4)cc[nH]c3=O)nc12 [BMS536924] (first compound 0.04 µM, partner dose 0.2 µM) | 95.2%
3 | Cc1cn(-c2cc(NC(=O)c3ccc(C)c(Nc4nccc(-c5cccnc5)n4)c3)cc(C(F)(F)F)c2)cn1 [nilotinib] + COc1cc2ncnc(Nc3ccc(Oc4ccccc4)cc3)c2cc1OC [SrcI1] (first compound 0.2 µM, partner dose 2 µM) | 98.8%
4 | COc1ccc(C2=N[C@@H](c3ccc(Cl)cc3)[C@@H](c3ccc(Cl)cc3)N2C(=O)N2CCNC(=O)C2)c(OC(C)C)c1 [Nutlin-3] + CN(NC(=O)CC(=O)NN(C)C(=S)c1ccccc1)C(=S)c1ccccc1 [STA4783] (first compound 0.1 µM, partner dose 0.006 µM) | 75.4%
5 | Cc1cc(Nc2cc(N3CCN(C)CC3)nc(/C=C/c3ccccc3)n2)n[nH]1 + COc1ccc(-c2ccc3c(N4CCOCC4)nc(N4C[C@@H](C)O[C@@H](C)C4)nc3n2)cc1CO [KU0063794] (first compound 0.04 µM, partner dose 0.02 µM) | 109%
6 | Cn1c(=O)n(-c2ccc(C(C)(C)C#N)cc2)c2c3cc(-c4cnc5ccccc5c4)ccc3ncc21 + C[C@@H]1CCN(C(=O)CC#N)C[C@@H]1N(C)c1ncnc2[nH]ccc12 [CP690550] (first compound 0.004 µM, partner dose 1 µM) | 120%
7 | Cc1cn(-c2cc(NC(=O)c3ccc(C)c(Nc4nccc(-c5cccnc5)n4)c3)cc(C(F)(F)F)c2)cn1 [nilotinib] + C[C@@H]1CCN(C(=O)CC#N)C[C@@H]1N(C)c1ncnc2[nH]ccc12 [CP690550] (first compound 0.2 µM, partner dose 1 µM) | 110%
8 | Cn1c(=O)n(-c2ccc(C(C)(C)C#N)cc2)c2c3cc(-c4cnc5ccccc5c4)ccc3ncc21 + NC(=O)Nc1cc(-c2cccc(F)c2)sc1C(=O)N[C@H]1CCCNC1 [AZD7762] (first compound 0.004 µM, partner dose 0.02 µM) | 95.8%
